# Assay results reported in the supplement of paper PMC8728848.
# Some of the results follow.
# Tests used:
# Assay in all cases: glycan array binding signal (z-score within array); higher = stronger binding
# Settings in all cases: glycan notation: IUPAC condensed, linker removed
# [1] = target: Gal(b1-4)GlcNAc(b1-2)Man(a1-3)[Gal(b1-4)GlcNAc(b1-2)Man(a1-6)]Man(b1-4)GlcNAc(b1-4)GlcNAc
# In short: (§1)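 The binding signal is a Z-score computed within each array and averaged over linkers. Arrays of the same protein sequence at different concentrations or buffers were also averaged together. Data originate from 3228 arrays in the Consortium for Functional Glycomics database, kept only where the protein sequence was available.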
# [2] = target: Gal(b1-4)GlcNAc(b1-2)Man(a1-3)[Gal(b1-4)GlcNAc(b1-2)Man(a1-6)]Man(b1-4)GlcNAc(b1-4)[Fuc(a1-6)]GlcNAc
# In short: as §1
# [3] = target: Gal(b1-4)GlcNAc(b1-2)Man(a1-3)[Gal(b1-4)GlcNAc(b1-2)Man(a1-6)][Gal(b1-4)GlcNAc(b1-4)]Man(b1-4)GlcNAc(b1-4)[Fuc(a1-6)]GlcNAc
# In short: as §1
# [4] = target: Gal(b1-4)GlcNAc(b1-2)Man(a1-3)[Gal(b1-4)GlcNAc(b1-2)Man(a1-6)][GlcNAc(b1-4)]Man(b1-4)GlcNAc(b1-4)[Fuc(a1-6)]GlcNAc
# In short: as §1
# [5] = target: Gal(b1-4)GlcNAc(b1-2)Man(a1-3)[GlcNAc(b1-2)Man(a1-6)]Man(b1-4)GlcNAc(b1-4)GlcNAc
# In short: as §1
# [6] = target: Gal(b1-4)GlcNAc(b1-2)Man(a1-3)[GlcNAc(b1-4)][Gal(b1-4)GlcNAc(b1-2)Man(a1-6)]Man(b1-4)GlcNAc(b1-4)GlcNAc
# In short: as §1
# [7] = target: Gal(b1-4)GlcNAc(b1-2)Man(a1-3)[Man(a1-6)]Man(b1-4)GlcNAc(b1-4)GlcNAc
# In short: as §1
# [8] = target: Gal(b1-4)GlcNAc(b1-2)Man(a1-6)Man(b1-4)GlcNAc(b1-4)GlcNAc
# In short: as §1
# [9] = target: Gal(b1-4)GlcNAc(b1-2)Man(a1-6)[GlcNAc(b1-2)Man(a1-3)]Man(b1-4)GlcNAc(b1-4)GlcNAc
# In short: as §1
# [10] = target: Gal(b1-4)GlcNAc(b1-2)Man(a1-6)[Man(a1-3)]Man(b1-4)GlcNAc(b1-4)GlcNAc
# In short: as §1
# [11] = target: Gal(b1-4)GlcNAc(b1-2)[Gal(b1-4)GlcNAc(b1-4)]Man(a1-3)[Gal(b1-4)GlcNAc(b1-2)Man(a1-6)]Man(b1-4)GlcNAc(b1-4)GlcNAc
# In short: as §1
# [12] = target: Gal(b1-4)GlcNAc(b1-2)[Gal(b1-4)GlcNAc(b1-4)]Man(a1-3)[Gal(b1-4)GlcNAc(b1-2)[Gal(b1-4)GlcNAc(b1-6)]Man(a1-6)]Man(b1-4)GlcNAc(b1-4)GlcNAc
# In short: as §1
# [13] = target: Gal(b1-4)GlcNAc(b1-2)[Gal(b1-4)GlcNAc(b1-4)]Man(a1-3)[GlcNAc(b1-4)][Gal(b1-4)GlcNAc(b1-2)Man(a1-6)]Man(b1-4)GlcNAc(b1-4)GlcNAc
# In short: as §1
# [14] = target: Gal(b1-4)GlcNAc(b1-2)[Gal(b1-4)GlcNAc(b1-4)]Man(a1-3)[GlcNAc(b1-4)][Gal(b1-4)GlcNAc(b1-2)[Gal(b1-4)GlcNAc(b1-6)]Man(a1-6)]Man(b1-4)GlcNAc(b1-4)GlcNAc
# In short: as §1
# [15] = target: Gal(b1-4)GlcNAc(b1-2)[Gal(b1-4)GlcNAc(b1-6)]Man(a1-6)[Gal(b1-4)GlcNAc(b1-2)Man(a1-3)]Man(b1-4)GlcNAc(b1-4)GlcNAc
# In short: as §1
# [16] = target: Gal(b1-4)GlcNAc(b1-2)[Gal(b1-4)GlcNAc(b1-6)]Man(a1-6)[Gal(b1-4)GlcNAc(b1-2)Man(a1-3)]Man(b1-4)GlcNAc(b1-4)[Fuc(a1-6)]GlcNAc
# In short: as §1
# [17] = target: Gal(b1-4)GlcNAc(b1-2)[Gal(b1-4)GlcNAc(b1-6)]Man(a1-6)[GlcNAc(b1-4)][Gal(b1-4)GlcNAc(b1-2)Man(a1-3)]Man(b1-4)GlcNAc(b1-4)GlcNAc
# In short: as §1
# [18] = target: Gal(b1-4)GlcNAc(b1-2)[Gal(b1-4)GlcNAc(b1-6)]Man(a1-6)[GlcNAc(b1-4)][Gal(b1-4)GlcNAc(b1-2)[Gal(b1-4)GlcNAc(b1-4)]Man(a1-3)]Man(b1-4)GlcNAc(b1-4)[Fuc(a1-6)]GlcNAc
# In short: as §1
# [19] = target: Gal(b1-4)GlcNAc(b1-3)Gal(b1-3)GalNAc
# In short: as §1
binder,measurement,setting,value
SP16664B-bot-474-25-474 (Bacteroides ovatus) (protein) CEEDIEIGNKIDESSYLASTQLSGLLLDENTNKNSSVIELRNNEYSTNVVFRLSKLPQKGVDVQIAVEESYAAIYNTIHETDFEVFPAANVKIANNGTFVLAPDDKVTPSVKVTLTAFDGMEEDKTYIVPLTVTSSTEGVTFTETSKHMVLLVQDYRNKPNTNKGEDAVQTVLYFEVNDTNPLNALEFLTESGKYFFDHIVLFAANINWDPEKQRVYLANNENVQFLLDNNDKYLQPLRKAGMKIIISILGNHDEAGVAQLSDMGAREFARELAAYCRAYNLDGVAFDDEYSNSPDLSNPWLASPSAYAGSRLMYECKAVMPEKIVSLYNLGNMYSSSLQVIDGIEPGQYCDYAVADYGGAAGPGTGMTLKQCAGMSIELRRGSGNSSESTARSRKEAGYGYYMFFALDPSLYGSQVYRCQSVCKGLYDETLVYPSYYYKKNSTEREAIN,glycan array binding signal (z-score),[1],-0.21
same,glycan array binding signal (z-score),[2],0.12
same,glycan array binding signal (z-score),[3],-0.39
same,glycan array binding signal (z-score),[4],-0.582
same,glycan array binding signal (z-score),[5],-0.201
same,glycan array binding signal (z-score),[6],-0.379
same,glycan array binding signal (z-score),[7],-0.019
same,glycan array binding signal (z-score),[8],-0.486
same,glycan array binding signal (z-score),[9],-0.164
same,glycan array binding signal (z-score),[10],-0.21
same,glycan array binding signal (z-score),[11],-0.452
same,glycan array binding signal (z-score),[12],0.559
same,glycan array binding signal (z-score),[13],-0.357
same,glycan array binding signal (z-score),[14],0.296
same,glycan array binding signal (z-score),[15],-0.037
same,glycan array binding signal (z-score),[16],-0.218
same,glycan array binding signal (z-score),[17],-0.012
same,glycan array binding signal (z-score),[18],0.497
same,glycan array binding signal (z-score),[19],-0.153
